# According to the RNAGym collection of RNA variant scans (doi:10.1093/nar/gkz1192):
# The source gives no read counts; variants with many changes may rest on few reads.
# B1: CPEB3 Ribozyme (parent)
# chain: UAACAGGGGGCCACAGCAGAAGCGUUCACGUCGCAGCCCCUGUCAGAUUCUGGUGAAUCUGCGAAUUCUGCUGUAUAUCUC
# Variants of: B1
# Assay: self-cleavage, relative activity (ratio to wild type); higher = more cleavage; in vitro, sequencing
# Summary of the method: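 CPEB3 self-cleaving ribozyme mutant libraries were made by rounds of error-prone PCR, barcoded, and transcribed in vitro with T7 RNA polymerase for 5 hours at 37°C. Cleavage occurred during transcription and a 15 min DNase I step before EDTA stop. RNAs were reverse transcribed with template switching and Illumina-sequenced, with DNA sequencing mapping barcodes to variants. Relative activity is the variant's cleaved/total read fraction divided by wild type's (minimum 5 reads), averaged across three batches.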
row,Variant,self-cleavage
1,UAACAGGGGGCCACAGCAGAAGCGUUCACGUCGCGGCCCCUGUCAGAUUCUGGUGAAUCCGCGAAUUCUGCGGUAUAUCUC,0.92
2,UAACAGGGGGCCACAGCAGAAGCGUUCACGUCGCGGCCCCUGUCAGAUUCUGGUGAAUCGGCGAAUUCUGAUGUAUAUCUC,0.4
3,UAACAGGGGGCCACAGCAGAAGCGUUCACGUCGCGGCCCCUGUCAGAUUCUGGUGAAUCUGCGAACACUGCUGUAUAUCUC,0.81
4,UAACAGGGGGCCACAGCAGAAGCGUUCACGUCGCGGCCCCUGUCAGAUUCUGGUGAAUCUGCGAAUCCUGCAGUAUAUCUC,0.46
5,UAACAGGGGGCCACAGCAGAAGCGUUCACGUCGCGGCCCCUGUCAGAUUCUGGUGAAUCUGCGAAUUCAGCUGUACAUCUC,1.1
6,UAACAGGGGGCCACAGCAGAAGCGUUCACGUCGCGGCCCCUGUCAGAUUCUGGUGAAUCUGCGAAUUCUGCGAUAUAUCUC,1.3
7,UAACAGGGGGCCACAGCAGAAGCGUUCACGUCGCGGCCCCUGUCAGAUUCUGGUGAAUCUGCGAAUUCUGCUGAAUAUCUA,1.3
8,UAACAGGGGGCCACAGCAGAAGCGUUCACGUCGCGGCCCCUGUCAGAUUCUGGUGAAUCUGCGAAUUCUGCUGCAUAACUC,1.27
9,UAACAGGGGGCCACAGCAGAAGCGUUCACGUCGCUGCCCCUGUCGGGUUCUGGUGAAUCUGCGAAUUCCGCUGUAAAUCUC,0.16
10,UAACAGGGGGCCACAGCAGAAGCGUUCACGUCGCUGCCCCUGUCGGAAUCUGGUGAAUCUGCGAAUUCUGCUGUAUAUCUC,0.09
11,UAACAGGGGGCCACAGCAGAAGCGUUCACGUCGCUGCCCCUGUCGGAUUCUGGAGAAUCUGCGAAUUCUGCUGUAUAUCUC,0.15
12,UAACAGGGGGCCACAGCAGAAGCGUUCACGUCGCUGCCCCUGUCUGAUUCUGGUGAAUCUGCGAGUUCCGCAGUAUAUCUC,0.11
13,UAACAGGGGGCCACAGCAGAAGCGUUCACGUCGCUGCCCCUGUCUGAUUCUGGUGAAUCUGCGAAUUCUGCUGUAUGUCAC,0.12
14,UAACAGGGGGCCACAGCAGAAGCGUUCACGUCGCUGCCCCUGUCUGAUUCUGGUAAACCUGCGAAUUCUGCUGUAUAUCUC,0.08
15,UAACAGGGGGCCACAGCAGAAGCGUUCACGUCGCUGCCCCUGUCUGAUUCUGGUGAAUCAGCGUAUCCUGCUGUAUAUCUC,0.13
16,UAACAGGGGGCCACAGCAGAAGCGUUCACGUCGCUGCCCCUGUCUGAUUCUGGUGAAUCUGCGAAUUCUGCUGUAUAACUC,0.14
17,UAACAGGGGGCCACAGCAGAAGCGUUCACGUCGCUGCCCCUGUCAGGUACUGGUGAAUCUGCGAAUUCUGCUGUAUAUCUC,0.1
18,UAACAGGGGGCCACAGCAGAAGCGUUCACGUCGCUGCCCCUGUCAGGUUCUGGUGAAUCUGCGAAUUCCGCUGUAUAUCUC,0.29
19,UAACAGGGGGCCACAGCAGAAGCGUUCACGUCGCUGCCCCUGUCAGUUUCUGGUGAAUCUGCGAAUUCUGCAGUUUAUCUC,0.08
20,UAACAGGGGGCCACAGCAGAAGCGUUCACGUCGCUGCCCCUGUCAGAUUCUGGUGGGUCUGCGAAUUCUGCAGUAUAUCUC,0.19
21,UAACAGGGGGCCACAGCAGAAGCGUUCACGUCGCUGCCCCUGUCAGAUUCUGGUGGAUCUUCGAAUUCUGCUGUAUAUCUC,0.17
22,UAACAGGGGGCCACAGCAGAAGCGUUCACGUCGCUGCCCCUGUCAGAUUCUGGUGUACCUGCGAAUUCUGCUGUAUAUCAC,0.13
23,UAACAGGGGGCCACAGCAGAAGCGUUCACGUCGCUGCCCCUGUCAGAUUCUGGUGAGUCUGUGAAUUCUGCAGUAUAUCUC,0.08

row,Variant,self-cleavage
1,UAACAGGGGGCCACAGCAGAAGCGUUCACGUCGCUGCCCCUGUCAGAUUCUGGUGAGUCUGCGAAUUCUGCUGUACAUCUC,0.5
2,UAACAGGGGGCCACAGCAGAAGCGUUCACGUCGCUGCCCCUGUCAGAUUCUGGUGAGUCUGCGAAUUCUGCUGUAUACCUC,0.53
3,UAACAGGGGGCCACAGCAGAAGCGUUCACGUCGCUGCCCCUGUCAGAUUCUGGUGAAUCUGCGGAUUCCGCUGUAUAUCUC,0.17
4,UAACAGGGGGCCACAGCAGAAGCGUUCACGUCGCUGCCCCUGUCAGAUUCUGGUGAAUCUGCGUAAUCCGCAGUAUAUCUC,0.05
5,UAACAGGGGGCCACAGCAGAAGCGUUCACGUCGCUGCCCCUGUCAGAUUCUGGUGAAUCUGCGUAUUCUGCAGUAUAUCUC,0.08
6,UAACAGGGGGCCACAGCAGAAGCGUUCACGUCGCUGCCCCUGUCAGAUUCUGGUGAAUCUGCGAGUUCUGCAGUAUAUCUC,0.2
7,UAACAGGGGGCCACAGCAGAAGCGUUCACGUCGCUGGCCCUGUCAGAUUCUGGUGAAUCUGCGAAUUCUGCUGUAUAUCCC,0.33
8,UAACAGGGGGCCACAGCAGAAGCGUUCACGUCGCUGUCCCUGUCAGAUUCUGAAGAAUCUGCGAAUUCUGCUGUAUAUCUC,0.19
9,UAACAGGGGGCCACAGCAGAAGCGUUCACGUCGCUGCCACUGACAGAUUCUGGUGAAUCUACGAAUUCUGCUGUAUAUCUC,0.16
10,UAACAGGGGGCCACAGCAGAAGCGUUCACGUCGCUGCCGCUGUCAGAUUCAGGUGAAUCUGCGGAUUCUGCUGUAUAUCUC,0.07
11,UAACAGGGGGCCACAGCAGAAGCGUUCACGUCGCUGCCUCUGUCAGAUUCAGGUGAACCUGCGAAUUCUGCUGCAUAUCUC,0.24
12,UAACAGGGGGCCACAGCAGAAGCGUUCACGUCGCUGCCUCUGUCAGAUUCUGGUGAAUCUGCGAAUUCUGCUGUAUAUCCC,0.35
13,UAACAGGGGGCCACAGCAGAAGCGUUCACGUCGCUGCCCAUGUCAGAUUCUGGUGAAUCUGCGAAUUCCGCUGUAUAUCUC,0.1
14,UAACAGGGGGCCACAGCAGAAGCGUUCACGUCGCUGCCCUUGUCAGAUUCCGGUGAAUCUGCGAAUUCUGCCGUAUAUCCC,0.31
15,UAACAGGGGGCCACAGCAGAAGCGUUCACGUCGCUGCCCCUGUCAGAUUCUGGUGAAUCUGGGAAUUCAGCUGUAUAUCUC,0.11
16,UAACAGGGGGCCACAGCAGAAGCGUUCACGUCGCUACCCCUGCCAGAUUCUGGUGAAUCUGAGAAUUCCGCUGUAUAACUC,0.09
17,UAACAGGGGGCCACAGCAGAAGCGUUCACGUCGCUCCCCCUGUCAGAUUCUGGUGAAUCUGCGAAUUCGGCUGUAUAUCUC,0.09
18,UAACAGGGGGCCACAGCAGAAGCGUUCACGUCGCUGCCCCUCUCAGAUUCUGGUGAAUCUGCGAAUUCAGCUGUAUGUCUC,0.06
19,UAACAGGGGGCCACAGCAGAAGCGUUCACGUCGCUGCCCCUGUCAGAUUCUGGUCGAUCUGCGAAUUCUGCUGUAUAUCUC,0.41
20,UAACAGGGGGCCACAGCAGAAGCGUUCACGUCGCUGCCCCUGUCAGAUUCUGGUUAAUCUGCGAAUUCAGCUGUAUAUCUC,0.09
21,UAACAGGGGGCCACAGCAGAAGCGUUCACGUCGCUGCCCCAGUCGGACUCUGGUGAAUCCGCGAAUUCUGCUGUAUACCUC,0.15
22,UAACAGGGGGCCACAGCAGAAGCGUUCACGUCGCUGCCCCAGUCAGAUUCUGGUGAAUCUGCGAAUUCUGGUGUAUAUCUC,0.13
23,UAACAGGGGGCCACAGCAGAAGCGUUCACGUCGCUGCCCCAGUCAGAUUCUGGUGAAUCUGCGAAUUCUGCUGUAUACCUC,0.05

row,Variant,self-cleavage
1,UAACAGGGGGCCACAGCAGAAGCGUUCACGUCGCUGCCCCCGUCAGAUUCUGGUGUAUCUGCGAAUUCAGCUGUAUAUCUC,0.13
2,UAACAGGGGGCCACAGCAGAAGCGUUCACGUCGCUGCCCCCGUCAGAUUCUGGCGAAUCUGCGAAUUCUGCUGUAUAUCUC,0.33
3,UAACAGGGGGCCACAGCAGAAGCGUUCACGUCGCUGCCCCCGUCAGAUUCUGGUGAAUCUGCGAAUUCUGCUGUACAUCUC,0.46
4,UAACAGGGGGCCACAGCAGAAGCGUUCACGUCGCUGCCCCGGUCAGAUUCUGGUGGAUCUGCGAAUCCUGCUGUAUAUCUC,0.11
5,UAACAGGGGGCCACAGCAGAAGCGUUCACGUCGCUGCCCCUGACAGAUUCUGGUGAGUCUGCGGAUUCUGCUGUAUAUCUC,0.27
6,UAACAGGGGGCCACAGCAGAAGCGUUCACGUCGCUGCCCCUGCCAGGUUCUGGCGAAUCUGCGAAUUCUGCUGUAUAUCUC,0.2
7,UAACAGGGGGCCACAGCAGAAGCGUUCACGUCGCUGCCCCUGCCAGAUUCUGGUGAGUCUGCGAAUUCUGCUGUAUGUCUC,0.14
8,UAACAGGGGGCCACAGCAGAAGCGUUCACGUCGCUGCCCCUGCCAGAUUCUGGUGAAUCUGUGAGUUCUGCUGUAUUUCUC,0.1
9,UAACAGGGGGCCACAGCAGAAGCGUUCACGUCGCUGCCCCUGCCAGAUUCUGGUGAAUCUACGAGUUCUGCUGUAUAUCUC,0.08
10,UAACAGGGGGCCACAGCAGAAGCGUUCACGUCGCUGCCCCUGCCAGAUUCAGGUGAAACUGCGAAUUCUGCUGUAUAUCUC,0.12
11,UAACAGGGGGCCACAGCAGAAGCGUUCACGUCGCUGCCCCUGCCAGAUUCGGGUGAAACUGCGGAUUCUGCUGUAUAUCCC,0.13
12,UAACAGGGGGCCACAGCAGAAGCGUUCACGUCGCUGCCCCUGCCAGAUUCUGGUGAAUCUGCGAAUUCUGCUGUACAUCUC,0.2
13,UAACAGGGGGCCACAGCAGAAGCGUUCACGUCGCUGCCCCUGUCAGAAUCUGGUGAAUCCGCGAAUUCUGCUGUAUAUUUC,0.21
14,UAACAGGGGGCCACAGCAGAAGCGUUCACGUCGCUGCCCCUGUCAGAUACUGGUGAAUCUGCGGAUUCUGCUGUAAAUCUC,0.15
15,UAACAGGGGGCCACAGCAGAAGCGUUCACGUCGCUGCCCCUGUCAGAUCCUGGUGAGUCUGCGAAUUCUGCUGUAUAACUC,0.11
16,UAACAGGGGGCCACAGCAGAAGCGUUCACGUCGCUGCCCCUGUCAGAUCCUGGCGAAUCUGCGAAUUCUGCUGUAUAUCCC,0.16
17,UAACAGGGGGCCACAGCAGAAGCGUUCACGUCGCUGCCCCUGUCAGAUUCGGGUGAACCUGCGAAUUCUGCUGUAUAUCUC,0.37
18,UAACAGGGGGCCACAGCAGAAGCGUUCACGUCGCUGCCCCUGUCAGAUUCUGGCGAAUCCGCGAAUUCUGCUGUAUACCUC,0.12
19,UAACAGGGGGCCACAGCAGAAGCGUUCACGUCGCUGCCCCUGUCAGAUUCUGGCGAAUCUGCGAAUUCUGCCGUAUAUCUC,0.55
20,UAACAGGGGGCCACAGCAGAAGCGUUCACGUCGCUGCCCCUGUCAGAUUCUGGUGAAACUGCGAUUUCUGCUGUAUAUCUC,0.1
21,UAACAGGGGGCCACAGCAGAAGCGUUCACGUCGCUGCCCCUGUCAGAUUCUGGUGAACCUGCGAAUUCUACUGUAUAUCUC,0.15
22,UAACAGGGGGCCACAGCAGAAGCGUUCACGUCGCUGCCCCUGUCAGAUUCUGGUGAACCUGCGAAUUCCGCUGUAUAUCUG,0.1
